Measured values reported in patent US20260250378A1 (AGENCY FOR SCIENCE TECHNOLOGY AND RESEARCH, published 2026).

Key:
[1] = molecular target: T1, recombinant human CNX protein with a polyhistidine tag at the C-terminus (HuCANX_His) (human, UniProt P27824 21-481, limits assumed); test: ELISA, IgG1 coated 10 nM, His-tagged antigen titrated (EC50 is of the antigen), anti-His-HRP; plateau only about 0.7
T1 construct: also called HuCANX with a His tag
T1 sequence (looked up): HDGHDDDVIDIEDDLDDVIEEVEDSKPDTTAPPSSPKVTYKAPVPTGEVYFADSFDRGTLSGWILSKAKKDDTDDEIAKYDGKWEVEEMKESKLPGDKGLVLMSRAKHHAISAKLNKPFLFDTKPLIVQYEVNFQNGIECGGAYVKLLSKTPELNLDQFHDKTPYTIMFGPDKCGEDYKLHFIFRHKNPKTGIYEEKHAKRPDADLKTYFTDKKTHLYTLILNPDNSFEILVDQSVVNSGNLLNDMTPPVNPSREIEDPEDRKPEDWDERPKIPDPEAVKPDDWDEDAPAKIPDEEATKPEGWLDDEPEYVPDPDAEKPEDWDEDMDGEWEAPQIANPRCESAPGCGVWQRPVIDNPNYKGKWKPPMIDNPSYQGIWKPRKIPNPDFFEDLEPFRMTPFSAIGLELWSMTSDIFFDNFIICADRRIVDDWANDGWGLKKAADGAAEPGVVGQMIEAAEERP
Procedure: The 15 antibody clones were tested using ELISA against biotinylated recombinant HuCANX_hFc protein to assess binding avidity for the target, with an irrelevant IgG1 used as a negative control antibody. In brief, the 15 antibody clones were coated at 2 μg/ml onto the 96-well ELISA plates overnight at 4° C. After blocking with casein for 2 hours, the biotinylated antigen was added at different concentrations (3 times serial dilutions) and incubated for 1 hour. The wells were then washed with PBST and detected by HRP conjugated streptavidin. […] antibody clones were also tested in ELISA against recombinant HuCANX_His protein to assess binding affinity for the target, with an irrelevant IgG1 used as a negative control antibody. In brief, the 15 antibody clones were coated at 10 nM onto the 96-well ELISA plates overnight at 4° C. After blocking with casein for 2 hours, the antigen was added at different concentrations (3 times serial dilutions) and incubated for 1 hour. The wells were then washed with PBST and detected by HRP conjugated anti-His tag antibody.

MsCANX_His = molecular target: T2, MsCANX_His (mouse, UniProt P35564); test: BLI, IgG1 on AHC biosensor, MsCANX_His 200-0.39 nM
T2 construct: recombinant, C-terminal polyhistidine tag; also called recombinant mouse CANX protein with a polyhistidine tag at the C-terminus
T2 sequence (antigen, looked up): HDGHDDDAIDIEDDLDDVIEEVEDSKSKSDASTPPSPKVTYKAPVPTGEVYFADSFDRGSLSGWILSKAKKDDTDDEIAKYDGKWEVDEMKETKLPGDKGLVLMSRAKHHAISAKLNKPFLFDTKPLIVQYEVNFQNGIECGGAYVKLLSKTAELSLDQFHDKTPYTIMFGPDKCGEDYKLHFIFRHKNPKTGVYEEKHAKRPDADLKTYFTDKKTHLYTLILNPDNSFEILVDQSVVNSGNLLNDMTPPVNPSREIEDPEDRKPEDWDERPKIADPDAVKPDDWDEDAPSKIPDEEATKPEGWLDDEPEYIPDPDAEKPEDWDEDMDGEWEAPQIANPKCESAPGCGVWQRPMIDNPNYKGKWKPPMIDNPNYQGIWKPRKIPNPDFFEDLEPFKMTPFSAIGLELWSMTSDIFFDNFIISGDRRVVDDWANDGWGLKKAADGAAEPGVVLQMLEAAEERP
Procedure: The binding affinity of the 15 antibody clones to recombinant mouse CANX protein with a polyhistidine tag at the C-terminus (MsCANX_His) was measured by Bio-Layer Interferometry. The 15 antibody clones were loaded and captured by the anti-human IgG Fc capture (AHC) biosensors (FIG. 6). The biosensors were dipped into a range of MsCANX_His protein concentrations (from 200 nM to 0.39 nM, in 2-fold dilutions), the kinetics of the association and dissociation were then recorded.

EC50 [1]: 22.5 nM
Kd (MsCANX_His): 188 nM
koff (MsCANX_His): 0.0465 s⁻¹
kon (MsCANX_His): 247000 M⁻¹ s⁻¹
B1: 3F8 IgG1 (antibody)
heavy: EVQLVQSGAEVKKPGASVKVSCKASGYTFTSYAMHWVRQAPGQRLEWMGWINAGNGNTKYSQKFQGRVTITRDTSASTAYMELSSLRSEDTAVYYCARVLHVLRYFDWPGAFDIWGQGTTVTVSS[left out - human IgG1 constant region]
light: QSVLTQPPSASGTPGQRVTISCSGSSSNIGTNYVYWYQQLPGTAPKLLIYINDQRPSGVPDRFSGSKSGTSASLALSGLRSEDEADYYCAAWDDSLSGLVFGGGTKLTVLGQPKAAPSVTLFPPSSEELQANKATLVCLISDFYPGAVTVAWKADSSPVKAGVETTTPSKQSNNKYAASSYLSLTPEQWKSHKSYSCQVTHEGSTVEKTVAPAECS
